US20230226214A1, “BIFUNCTIONAL BRIDGING COMPOSITIONS FOR VIRAL TRANSDUCTION” (Lycia Therapeutics, Inc., priority 2020, published 2023)

B1: Compound I-7-conjugated ADK8 antibody: "ADK8 conjugated to Compound I-7 (ITX-16590)"; ADK8 is the anti-AAV8 antibody (conjugate)
heavy: DVKLVESGGGLVKPGGSLKLSCADSGFSFSSYSMSWVRQTPEKRLEWVATITSGGDYTYYPDSVKGRFTISKDNARNTLYLQMSSLRSEDTAMYYCIRDFYGSTYWYFDVWGAGTTVTVSSAKTTAPSVYPLAPVCGDTTGSSVTLGCLVKGYFPEPVTLTWNSGSLSSGVHTFPAVLQSDLYTLSSSVTVTSSTWPSQSITCNVAHPASSTKVDKKIEPRGPTIKPCPPCKCPAPNAAGGPSVFIFPPKIKDVLMISLSPIVTCVVVDVSEDDPDVQISWFVNNVEVHTAQTQTHREDYNSTLRVVSALPIQHQDWMSGKEFKCKVNNKDLGAPIERTISKPKGSVRAPQVYVLPPPEEEMTKKQVTLTCMVTDFMPEDIYVEWTNNGKTELNYKNTEPVLDSDGSYFMYSKLRVEKKNWVERNSYSCSVVHEGLHNHHTTKSFSRTPGK
light: DVVMTQTPLTLSVTIGQPASISCKSSQSLLESDGKTYLNWLLQRPGQSPKRLIYLVSTLDSGVPDRFTGSGSGTDFTLKISRLEAEDLGVYYCWQGTHFPPTFGGGTKLEIKRADAAPTVSIFPPSSEQLTSGGASVVCFLNNFYPKDINVKWKIDGSERQNGVLNSWTDQDSKDSTYSMSSTLTLTKDEYERHNSYTCEATHKTSTSPIVKSFNRNEC
B2: Anti-AAV antibody compound conjugate: "Compound I-7 conjugated ... anti-AAV8 antibody (ADK8)" (conjugate)
heavy: B1 heavy
light: B1 light

Tested on: human 2V6·11 cells
Experiment: Transduction of AAV8-luciferase linked to a cell surface binding moiety via a bridging antibody
Assay type: cell-based
Conditions: AAV8-CMV-Luciferase MOI 5×10^4 preincubated with 1.56-200 ng antibody, 24 hours
Experimental: In order to assess transduction efficiency of luciferase-encoding AAV8 particles linked to a cell surface binding moiety via an antibody, cells were transduced with AAV8-luciferase and either unconjugated anti-AAV8 antibody (ADK8) or ADK8 conjugated to Compound I-7 (ITX-16590) and then analyzed for luciferase expression.
In performing these experiments, human 2V6·11 cells (Elab Science) in DMEM (Gibco) with 10% fetal bovine serum (Gibco) were seeded onto 96-well plates (Nunc) 24 hours prior to infection. AAV8-CMV-Luciferase (Vector Biolabs) at a multiplicity of infection (MOI) of 5×10^4 were preincubated with 1.56-200 ng of ADK8 antibody or Compound I-7 (ITX-16590) conjugated ADK8 antibody for 30 minutes at 37° C. and then added to cells. After 24 hours, the cells were washed with PBS and analyzed for luciferase levels using a luciferase assay kit (Promega) and a luminometer.

Molecule | transduction efficiency of AAV8-luciferase
B1 | increased compared to transduction of AAV8-luciferase alone
B2 | increase transduction efficiency
